Sequences and labels used below:
T1: UNK ZnF1-3 (human, UniProt Q9C0B0 31-174)
T1 sequence: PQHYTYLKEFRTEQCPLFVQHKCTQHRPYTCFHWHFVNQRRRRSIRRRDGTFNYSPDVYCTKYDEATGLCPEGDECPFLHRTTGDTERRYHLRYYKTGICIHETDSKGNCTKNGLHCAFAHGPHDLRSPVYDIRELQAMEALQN

B1: chr2:32339754:32339755:+_ENSG00000021574_ENST00000315285|hu_hu|motif|central (ssRNA)
RNA: GGGAGUUCUACAGUCCGACGAUCGCCUGAAAGGCCUGCAGAUCCAGUUUUCAUAACUGUUUUUGAACGAGGCAGUGAAUUACGGGUGUGUGUUAAGGGGUCUUUUCUUUUUGGAACAGCUCCACUUUCUGACUGGAGAUGUCCCAACAGAGGAUUGAGCAUCA
B2: chr11:77336104:77336105:-_ENSG00000074201_ENST00000525064|hu_mus|hu_hu_hu_mus_False|48_98 (ssRNA)
RNA: GGGAGUUCUACAGUCCGACGAUCCUCACACAUUGCUGUGAACAUUGCCUCCAAUGCUGACUUAUCACUGGGCACAAAUCGAAAUUCAGUAAUAGGUUCAACAUCAUCAUUGUCUUCCUCAUCUUCAUCAGAGAGAGGUUCUUUCAACAGAGGAUUGAGCAUCA
B3: chr1:39494447:39494448:+_ENSG00000168653_ENST00000372967|hu_mus|hu_hu_hu_mus_False|18_58 (ssRNA)
RNA: GGGAGUUCUACAGUCCGACGAUCGCACCGAGCGGCGUUCUUAUAGGGCUGUUCUGCGCUUAGGAACAUAAAGUGCCGAUCUAUGUUGAUGCCCAGCUUUUUCUGUAUGUCAAGGAAAGGCAUGGCCCUGCAGUGCCCUUGUCACAACAGAGGAUUGAGCAUCA
B4: chr18:65376317:65376318:+_ENSMUSG00000024589_ENSMUST00000163516|mus_hu|motif|central (ssRNA)
RNA: GGGAGUUCUACAGUCCGACGAUCUUUCAUGCCAACAGGAAGCUAACCCUUUUCUAGAAAACGUUCUCCAAGCUCCCGUCCGGAUGCUGUGGCACUUUCUCUGACAUACUGAGAACACUCUGGGGUGGGGGUGUGUGUAUGCAACAACAGAGGAUUGAGCAUCA
B5: 110260516_110260636_141_5pUTR_ENSMUSG00000020623_ENSMUST00000020949|mouse|control|control (ssRNA)
RNA: GGGAGUUCUACAGUCCGACGAUCCUGCAGGCGUGCAAUCUUCAUGCAAGUGGAGUUUCUCUUGACCGAUGCAGCAGAUGGACUUUCAGGGAGUCAAGGUGGAAUUGCACACCUUGCAAAACAGUCUAGAAAGUGAUUUUUCCCCAACAGAGGAUUGAGCAUCA
B6: chr14:66974463:66974464:+_ENSMUSG00000022044_ENSMUST00000074523|mus_hu|mus_mus_mus_hu_False|48_78 (ssRNA)
RNA: GGGAGUUCUACAGUCCGACGAUCUUGUAGGACGACUUAUUCAGGGGAUCGGCCAGGAAGCAAGAGCAGAACAAGGACACCAGCGGGAGUUCCUUCAUCUUCUCUUUGUAGGCAGCAAGGGUCAUGUUUCUGGGAUCUGGUGGCCAACAGAGGAUUGAGCAUCA
B7: 61648417_61664575_770_CDS_ENSMUSG00000004798_ENSMUST00000004920|mouse|control|control (ssRNA)
RNA: GGGAGUUCUACAGUCCGACGAUCAAACACUCUGAUAGUAUCUUCACUCAGAGUUCCUUUAGCUUGCAAAUAAUCUGCCAGGUCUCCACCAUUGCAAUACUCCAUCACCAGAAAGACAGAGUUGGGCAAUUCCUGAACAUCAUACAACAGAGGAUUGAGCAUCA
B8: chr12:57066556:57066557:-_ENSG00000110958_ENST00000262033|hu_mus|FALSE|FALSE (ssRNA)
RNA: GGGAGUUCUACAGUCCGACGAUCGUCUGUUCUUUUAUGCUUGGAAUCAUUUGGAUCGAUACAAUGAAAAAGAUCAAUUUCAUUUAAAUGCUUAAAAUUAUCGCUUCCUCCAAGACAACUGAAAGUAAGUUUGGAUUUUUCAAACAACAGAGGAUUGAGCAUCA
B9: chr16:94690367:94690368:+_ENSMUSG00000040785_ENSMUST00000117648|mus_hu|FALSE|FALSE (ssRNA)
RNA: GGGAGUUCUACAGUCCGACGAUCCUAUAUUUACCACUGUCUAAAAGUCACAAAACAAUAUCUAAUUUUUUCAUGGUUUCUAAUGCAGUUACAGUUUUGUUCUUAGGUCACAGUACAAGACUGCAUGCAUACUUUACACAAAUACAACAGAGGAUUGAGCAUCA
B10: chr12:39756943:39756944:-_ENSG00000139116_ENST00000544797|hu_mus|hu_hu_hu_mus_False|1_28 (ssRNA)
RNA: GGGAGUUCUACAGUCCGACGAUCGGUUUGGCUGUUACCCCCAAGGGAAUCCUGCAAGAGUCUUGUCAGCUUAGAGUCUCUGUAAGGGACAUGGGUGGCUCUCUUGCUCUUGUCUCCCAAGGCGCUGAUUACAUUCCCAAGUGCCAACAGAGGAUUGAGCAUCA
B11: chr3:19126325:19126326:-_ENSMUSG00000069094_ENSMUST00000091314|mus_mus|FALSE|FALSE (ssRNA)
RNA: GGGAGUUCUACAGUCCGACGAUCGCUUGCUCUACAUAAGACCACUGAAAACAACUUACAAAAGUGGAAUGUUUUAAGUCUAAAAUUAGUCCUUAAAUUUUAUCCUAGAAAACAUCUACUCACAUCAAAAGGUCCGCCAAAGGGCAACAGAGGAUUGAGCAUCA
B12: chr9:95013113:95013114:-_ENSG00000196305_ENST00000443024|hu_hu|hu_hu_hu_mus_False|8_78 (ssRNA)
RNA: GGGAGUUCUACAGUCCGACGAUCCUCAGUCAGAAAGGGCGUGUAAGGGGCCAUCAGUCUGCAAAGAGAAAGCAGGACACUGAACAGUGUCUCCAGAGCCAUGACACAGUCUUCCACCCCACUCUCACCCUUUAAUCUCCUCCUCAACAGAGGAUUGAGCAUCA
B13: chr5:46091440:46091441:-_ENSMUSG00000015882_ENSMUST00000045586|mus_hu|FALSE|FALSE (ssRNA)
RNA: GGGAGUUCUACAGUCCGACGAUCUUGGUGAUAUCUGCCUGGGAAAUCUCUCUUCCUAAAGUAUUUGUAUAUGGGAGUCCUUGUUUGUGAAUGUUUCCUGGAUUAGGGAGGUGUCAACAUAAAUGUAUUAUUAACCAUGAAGCUCAACAGAGGAUUGAGCAUCA
B14: chr1:39494447:39494448:+_ENSG00000168653_ENST00000372967|hu_mus|hu_hu_hu_mus_False|18_108 (ssRNA)
RNA: B3 RNA with C27U, G31C, G33A, G36C, A78G, U81C, U83G, U85C
B15: chr4:48853911:48853912:+_ENSG00000109180_ENST00000264312|hu_mus|FALSE|FALSE (ssRNA)
RNA: GGGAGUUCUACAGUCCGACGAUCCUCGUUCAUAGAAGCACUAAAUGGAAUUGGCUCAUAACGAGGAAGCGCCUCCUUUUCUAUGUUGUCUGCUGCUGGAGAUGUCCCGAAAGAGGACUGACCACUCACAUUUGAGUCAAAUUUCAACAGAGGAUUGAGCAUCA
B16: chr14:66974463:66974464:+_ENSMUSG00000022044_ENSMUST00000074523|mus_hu|mus_mus_mus_hu_False|18_28 (ssRNA)
RNA: B6 RNA with A62G, U89C, G107A, A113U, G119A
B17: chr9:64573345:64573346:-_ENSMUSG00000004771_ENSMUST00000172298|mus_hu|FALSE|FALSE (ssRNA)
RNA: GGGAGUUCUACAGUCCGACGAUCAGAAACAAUGCGGUAAAUCUCUGUUAAAAUUGUCUGAAAAGCAGCUUCUACAUUUGUAGAGUCUAGGGCCGAAGUUUCAAUGAAUGACAAACCAUUCUUUUCUGCAAAAGCUCUUGCUUCCAACAGAGGAUUGAGCAUCA
B18: chr17:65740002:65740003:+_ENSG00000130935_ENST00000581375|hu_hu|hu_hu_hu_mus_False|58_88 (ssRNA)
RNA: GGGAGUUCUACAGUCCGACGAUCAACAAAUCUUUCUUCCCUGGACGCAAGAGUUCAUUCAUAUUAAAAAAAAUAUAUGUCUAUGAAGUUAGGUGUGGUGGCCACACCUUUACUCCCAGCACUUUGGGAGGUGGAUCUCUGAGUCAACAGAGGAUUGAGCAUCA
B19: chr8:54879716:54879717:-_ENSG00000187735_ENST00000521604|hu_mus|FALSE|FALSE (ssRNA)
RNA: GGGAGUUCUACAGUCCGACGAUCUCAUCAUGUAAGAAAAAUUUCAGCACAAAAGAUUCAGUCUAAAGGAGGUGCCUUUUUUUGCAACCUCCAUACACAAAGAGCAUAGCUUAAUGAUUUACACAGUUCUCAGGCUUAAUCCUUCAACAGAGGAUUGAGCAUCA
B20: chr2:5814250:5814251:-_ENSMUSG00000025816_ENSMUST00000102981|mus_hu|mus_mus_mus_hu_True|78_108 (ssRNA)
RNA: GGGAGUUCUACAGUCCGACGAUCUUCCUUUCAGGCUUCUGAAUUUCUGGUAGAACUGCACAGAAAGGUUUGAUAACUUCUAAAAAUUUGAUGCCCAUGGCUGCUGCUGGGGAGGCCCAGGGGGAAACCGCGGCCUCGGCGCUGCAACAGAGGAUUGAGCAUCA
B21: chr1:163112212:163112213:-_ENSG00000143248_ENST00000313961|hu_hu|hu_hu_hu_mus_False|1_48 (ssRNA)
RNA: GGGAGUUCUACAGUCCGACGAUCUUUUAUUAUCAGUAAGAGUGAGUUACAUACUAGGCAAAGUAUUGGAUACAAUAAUCAGGAAACAAACACAAUUGGUCCAGAAUUUAAAACUUUAUGAGCGAAGUGCUGGCACAGGAUUUACAACAGAGGAUUGAGCAUCA
B22: 102723950_102724070_875_CDS_ENSMUSG00000020929_ENSMUST00000107060|mouse|control|control (ssRNA)
RNA: GGGAGUUCUACAGUCCGACGAUCAAUGUGUCGCAGCUUGUAAUAAGCAUCUGUUGGAGGCAGCUUCAGCUCCAAGAUCAGCCGGUCGAUUUUGUUGAUACACACGGUGACUGCUAACCUUUCCUGCACUGCGUGCUUGAUCAGCAACAGAGGAUUGAGCAUCA

This passage reports binding signal results from publication PMC12136788.

Numbering of substitutions follows the chain as printed. This is one part of the list.

This test has as its target T1, UNK ZnF1-3. Description: nsRBNS (natural sequence RNA bind-n-seq); RBNS binding buffer (assumed for nsRBNS): 25 mM Tris pH 7.5, 150 mM KCl, 3 mM MgCl2, 0.01% Triton X-100, 500 ug/ml BSA, 20 U/ml SUPERase-In, 4 C; UNK is unkempt and MSI1 is Musashi-1; names of the RNAs are library labels; protein concentration not given here; high values mean tight binding.
In turn, B1 gave a binding signal of 0.777 enrichment R. On to B2, for which the binding signal amounted to 0.784 enrichment R. Turning to B3, the binding signal was 0.78 enrichment R. In the case of B4, the binding signal was 1.03 enrichment R. In turn, B5 showed a binding signal of 0.878 enrichment R. As for B6, the binding signal was 2.53 enrichment R. On to B7, for which the binding signal is 1.26 enrichment R. B8: the binding signal came out at 0.829 enrichment R. On to B9, for which the binding signal is 0.548 enrichment R. Turning to B10, the binding signal came to 0.644 enrichment R.

In turn, B11 came in with a binding signal of 1.04 enrichment R. B12 returned a binding signal of 1.16 enrichment R. With B13 the figure was 1.61 enrichment R. For B14, the binding signal came to 0.963 enrichment R. On to B15, for which the binding signal was 1.45 enrichment R. With B16, the binding signal came out at 2.06 enrichment R.

For B17, the binding signal amounted to 0.8 enrichment R.

Molecule B18 showed a binding signal of 1.03 enrichment R. With B19 the figure was 0.679 enrichment R; with B20, 1.39 enrichment R; with B21, 1.36 enrichment R. B22 gave a binding signal of 0.679 enrichment R.
